Results on 167 variants are retold here after the RNAGym collection of RNA variant scans (doi:10.7554/elife.90254).

The source gives no read counts; variants with many changes may rest on few reads.

First the molecules themselves.
B1: LINE1-mini (parent)
chain: GGCAGAGCUCAACACAGCGUGGCAAAGUGGCUGUGGCUAGACUGCC

Variants of B1 are the subject of this data set. As to the kind of experiment: self-cleavage, relative activity (ratio to wild type); higher = more cleavage; in vitro, sequencing; the parent is a self-cleaving ribozyme.
On to C10U C23A G36U, for which the self-cleavage is 0.01. Consider C10G G19U G44A, for which the self-cleavage was found to be 0.05. In the case of C10G U28A G30A, the self-cleavage was determined as 0.08. As for C10G G22A U34A U38A, the figure is 0.03; as for C10G G17U G33A G44U, 0.04; as for C10G C15G C42U, 0.04. For the variant C10U C13U U34C, the self-cleavage is 0.01. With C10U C23U U28G A41G, the self-cleavage was 0.02. For the variant C10U C18U G19A C42A, the self-cleavage was found to be 0.02.

For the variant C10U C15G G35A, the self-cleavage stood at 0.05. As for C10G C15G G30U, the figure is 0.04; as for C10U C13G A25U G40C, 0.02; as for C10U A24U G29U A39U A41U C45A, 0.12.

As for C10U C31U U38A, the self-cleavage stood at 0.03. As for C10G C15U G22A C23A, the figure is 0.12; as for C10U C13G C18U G36C, 0.09; as for C10U A11C A25C, 0.03.

On to C10U C31G G33C U38G, for which the self-cleavage worked out at 0.01.

Turning to C10G G17C C23G G44U, the self-cleavage was determined as 0.02.

With C10U C31G G44A C46U, the self-cleavage is 0.03. In the case of C10G C23U G33U A41U it was 0.01. As for C10G C23U G33U A41G, the self-cleavage is 0.01.

In the case of C10G U20G G40U A41G, the self-cleavage stood at 0.01. As for C10U G17C G33A G35U, the self-cleavage came out at 0.02. As for C10U C15A G17A G27C U28A, the figure is 0.07; as for C10U C23U G44A, 0.08; as for C10G G17U G40U, 0.01. For the variant C10U C18G C37G, the self-cleavage is 0.05. Take C10U A25C G27C C31G A39U G40C: the self-cleavage came to 0.01.

Take C10U G17U U38C: the self-cleavage was determined as 0.31. As for C10U A11U G19C C23A U32C G44A, the figure is 0.01; as for C10G C18A G22A C23G C46U, 0.14; as for C10U A16U C23G A41U, 0.03. In the case of C10U A16U G19U G40C it was 0.02; in that of C10U C23A C45G, 0.27; in that of C10G G21U U38C C46A, 0.02. For C10G U32A G40U, the self-cleavage came out at 0.02. As for C10U A25G A39G U43A C46A, the figure is 0.03. In the case of C10U C31U G33U it was 0.01; in that of C10U A26C G27A U32G C42U, 0.06. Consider C10U C18G A26C U43A, for which the self-cleavage stood at 0.02. Consider C10U A14C C37A, for which the self-cleavage was found to be 0.05. In the case of C10G G17U C46A it was 0.05. In the case of C10G C23G G36U C42G it was 0.01. As for C10G C23U G36A, the figure is 0.03; as for C10U A16C G29C, 0.19; as for C10U A12G A16U C18G A26G G27A C37G, 0.03. As for C10U C18A G19C U38C, the self-cleavage turned out to be 0.04.

Consider C10U A14U G22C G29U, for which the self-cleavage turned out to be 0.22. As for C10U C45U C46U, the figure is 0.15; as for C10G G19C U34C, 0.07. As for C10U C15U C23A A24U A26G U32G C42G, the figure is 0.08. In the case of C10U C15G G44C it was 0.03; in that of C10G G17A G44C, 0.03. For the variant C10U A11G C42G, the self-cleavage was 0. In the case of C10G G22U C23A G27U U34C A39C it was 0.01; in that of C10G C23G A41U C42U, 0.03; in that of C10U A14U U20A, 0.21. With C10G C31G G36A G44A, the self-cleavage worked out at 0.01. C10U A25U C31U G35U C37G G40A: the self-cleavage is 0.01. As for C10U C18A C23G A25U, the figure is 0.06; as for C10G G19U C23U, 0.06; as for C10G C31G C37A, 0.01. As for C10G C23U G33U C37A, the figure is 0.

C10G G17U U28A G33A: the self-cleavage worked out at 0. For C10G G17A U28A G35U G40A, the self-cleavage worked out at 0.02. As to C10U G17C A24U G30A, the self-cleavage is 0.09.

Consider C10G G19U G40U, for which the self-cleavage was 0.

Take C10G G27A G29A G40A: the self-cleavage amounted to 0.03. In the case of C10G C23A G27U C31G it was 0.07; in that of C10U C23G A25G C42U, 0.24; in that of C10U C15U G30C, 0.07. In the case of C10G C31G A41C it was 0.01; in that of C10U C18A G33A, 0.01; in that of C10G U20C A39C, 0.01. In the case of C10G C18G G35C it was 0.02; in that of C10G C15U G17C G29U U32A G36A U38G, 0.01. In the case of C10U A11G G22U, the self-cleavage is 0.04.

On to C10U C37U U43G, for which the self-cleavage came out at 0. As for C10U C23A A24U G36U A41C C42U U43G, the figure is 0.01; as for C10U G19A A24U C45A, 0.05. In the case of C10G G22U C23A G29A it was 0.03. Regarding C10U A16G U20C, the self-cleavage was found to be 0.13. As to C10U C23A G44A, the self-cleavage was found to be 0.19. As for C10G G30A G35U, the figure is 0.01; as for C10G U20C G27C G36U A39G, 0; as for C10G G40C G44C, 0.02.

Turning to C10U A12U G35A, the self-cleavage was determined as 0.17. In the case of C10U C37U U38C it was 0.01; in that of C10U C23U G30U G33C, 0.04; in that of C10U A14C G36A, 0.03. As for C10U G17C G21U U32C G33C A39U, the figure is 0.02; as for C10G G17A G19C G27C C31U, 0.03. In the case of C10G C18A G33A G40C it was 0.02; in that of C10U G17C C18U G40U U43G, 0.02; in that of C10G G27C G33U, 0.02.

For C10U A11U G21U U34G G35U G40U, the self-cleavage is 0.01. In the case of C10U A26C G44U it was 0.08; in that of C10U C23U G27C, 0.2.

Turning to C10G U20C C23U A25G, the self-cleavage was 0.07. With C10U A14C G27C C46U, the self-cleavage turned out to be 0.01. Turning to C10U C13G A14U G29C, the self-cleavage amounted to 0.02. With C10U C13A G17A C18U U20A A25U G36A C37U, the self-cleavage was 0.02. With C10U A26C G36U, the self-cleavage came out at 0.

On to C10U A12U U20G G22U G40U, for which the self-cleavage worked out at 0.01.

For the variant C10U C13U U38A, the self-cleavage amounted to 0.02. As for C10G G27U C42G, the figure is 0.01; as for C10U A11U G40U C42A, 0; as for C10U C13G G30A, 0.07. As for C10G G19C G22U, the figure is 0.12; as for C10U A25U A26G C45U, 0.1; as for C10U C13G C42U C46G, 0.04. As for C10G G22A G27A G30U, the figure is 0.05; as for C10U A14U C18U, 0.02; as for C10U C18A G27C U28A, 0.23. Turning to C10U A12U G21U, the self-cleavage turned out to be 0.16. As for C10U G17A C42U, the figure is 0.03; as for C10U A14U G21U U32G A39C C42A C46U, 0.01; as for C10G U34C A41U, 0.03. As for C10G C37A C42U, the figure is 0.02. In the case of C10G C15G G30A U32G A39U G40C it was 0.01; in that of C10G G19A C31U C37G, 0.02. On to C10G C18U G29U, for which the self-cleavage stood at 0.04. In the case of C10U A14U U28C it was 0.21. In the case of C10G C15G C23A G30U it was 0; in that of C10U A25U A39G G44C, 0.03; in that of C10G G19U C31U, 0.13. On to C10G G27U U28G, for which the self-cleavage came to 0.06.

As to C10U A16U U32G, the self-cleavage was 0.07. In the case of C10G G21C G36C C37A C42G it was 0.01. As to C10G U28C G29C U34C G35A, the self-cleavage stood at 0. As for C10G G17A G27C U28G U34A G40A, the figure is 0.02. In the case of C10U G17U G21U it was 0.81. In the case of C10U C23U C37A A39U, the self-cleavage was determined as 0.01. In the case of C10G U34C G40U it was 0.02.

Take C10U A12G C15A G17U G27U G35U C37G: the self-cleavage came to 0.05. As for C10U A12U G44U, the figure is 0.03; as for C10G G17A G40C, 0.01. In the case of C10U C18A G22U A24C G33A A39C it was 0.01. As for C10U G19A G21C, the figure is 0.19; as for C10U C15U G35A C42U U43C, 0.02. Take C10G U28A G36C: the self-cleavage turned out to be 0.02.

With C10U A11U G36U C37A, the self-cleavage came out at 0.02. In the case of C10U A11G C23A G33U G36C it was 0.02. As for C10U A12C C37G, the figure is 0.01; as for C10G C18U G30C G36C, 0.02. In the case of C10U A16G C18U U34A G36U U43A it was 0.12; in that of C10U A14G G29U, 0.17; in that of C10U A26G G40U, 0.03.

With C10U A11G G30C G33U G44A, the self-cleavage was found to be 0.01.

Regarding C10G G22U G27C, the self-cleavage is 0.05. Regarding C10U C15U C18A G40A G44A, the self-cleavage turned out to be 0.03. As for C10G C23U G36U A41G U43A, the figure is 0; as for C10G G17C U32C A39U, 0.03. In the case of C10U C18U A25G U43A it was 0.01.

In the case of C10U G17U U28G G29U, the self-cleavage was 0.04. As for C10G G21C A25U G30A U32C U34A C45G, the self-cleavage stood at 0.

Regarding C10G G35A U38C, the self-cleavage was found to be 0.01.

On to C10U A16C U32C U43A C46U, for which the self-cleavage is 0.01. Regarding C10U A12U G29C, the self-cleavage came out at 0.01. As for C10U C23U G36U, the figure is 0.03. On to C10U A26U G36U, for which the self-cleavage worked out at 0.02. As to C10U A11C G35A, the self-cleavage was determined as 0. For the variant C10G G21U G36C G44A, the self-cleavage stood at 0.01. In the case of C10U C13G G21A A25U it was 0.12; in that of C10U A39U U43A, 0.02. In the case of C10G C31U C46A it was 0.02.
